Values marked as one replicate rest on one cluster of the flow cell; about a third of the high ones do not repeat.

This data set deals with ATP. Nature of the data set: switch fluorescence ratio, 500 uM ATP over buffer (Cy3 cluster intensity, sum of 5 cycles each) (fold (ratio)); higher = stronger signal-on switching upon ATP binding; sequences stand for … in TCGTCGGCAGCGTCAGATGTGTATAAGAGACAGTTTTTTTTTTTTTTTTTTTTTTTTT…TC. Particulars: aptamer strand: ATP DNA aptamer (quencher-CACCTGGGGGAGTATTGCGGAGGAAGG + anchor), 100 nM annealed; ATP concentration: 500 uM; one replicate. In a few lines: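 For every switch-domain sequence, the fluorescence ratio is the mean of per-cluster values, each being summed target-cycle Cy3 intensity over summed buffer-cycle Cy3 intensity. Clusters outside 100-1000 RFU were excluded. On a modified Illumina MiSeq flow-cell, the Cy3-labelled switching-strand clusters were annealed to 100 nM quencher-labelled ATP aptamer, imaged in selection buffer and then after 15 min with 500 uM ATP at 22 °C. Five such cycles were run, with NaOH stripping and re-annealing between them.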
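Note: ATP exposure 15 min at 22 °C before imaging.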

Consider ATTACTTAGG, for which the switch fluorescence ratio was determined as 1.07.
The value for TCTCGAATCG was 0.964; that for CTCCTTACGT was 1.14; that for AGCGGATATT was 1.1.
As to GCATCGGTAC, the switch fluorescence ratio amounted to 1.29.
ACCGGTGCCA: the switch fluorescence ratio was 1.02.
Turning to TTACTCTTTT, the switch fluorescence ratio amounted to 1.03.
Consider ATGTAGTGCT, for which the switch fluorescence ratio came to 1.01.
The value for ATAGGATGCT was 0.988.
As for GATGAACTGT, the switch fluorescence ratio was 0.947.
TCTGCCAGGC: the switch fluorescence ratio came out at 1.12.
The value for CAGGCTTGTG was 1.03; that for GATACCCTGA was 1.03; that for GTTTTCGGCA was 0.95.
With CCGTAGTATT, the switch fluorescence ratio is 4.75.
With TTCAACCCCG, the switch fluorescence ratio was 1.02.
As for GCAACGAGCG, the switch fluorescence ratio was 1.04.
On to GTGCGAAGGA, for which the switch fluorescence ratio amounted to 1.
Take TAAGTATTCA: the switch fluorescence ratio was found to be 1.09.
With ATCCATTTTA, the switch fluorescence ratio is 0.989.
In the case of CTCTACTG, the switch fluorescence ratio is 1.07.
TGCAGATAAT: the switch fluorescence ratio amounted to 1.02.
As for GGTTTTGTGA, the switch fluorescence ratio worked out at 1.01.
Take GGTCACTTG: the switch fluorescence ratio was 0.98.
For the sequence TTTGTATAAA, the switch fluorescence ratio amounted to 0.975.
Regarding ATTTTCAAAA, the switch fluorescence ratio was 1.02.
The value for ATAGATGACC was 1.04; that for CTCTTGCCCG was 1.12.
For TAGATGTG, the switch fluorescence ratio is 1.01.
In the case of GTTGAAGGC it was 1.1.
In the case of GATTTTTCTG it was 1; in that of ATGCAAAATA, 1.04; in that of AGAAGATCTT, 1.07.
In the case of AGGTCACGGA, the switch fluorescence ratio worked out at 0.935.
For the sequence TGACTACCTT, the switch fluorescence ratio is 1.21.
In the case of CGGATACGGA, the switch fluorescence ratio is 0.962.
As for TACTACTC, the switch fluorescence ratio is 1.08.
TTCGAGTACG: the switch fluorescence ratio turned out to be 1.08.
Regarding GAGCGGATCG, the switch fluorescence ratio was 1.01.
GCTGAGTGGT: the switch fluorescence ratio is 0.985.
For the sequence GGGGCGACAC, the switch fluorescence ratio turned out to be 0.962.
Take CTACACCCCC: the switch fluorescence ratio was found to be 1.81.
For the sequence CGACTCCCAG, the switch fluorescence ratio came to 1.02.
As to GTAAGGGCCA, the switch fluorescence ratio is 1.01.
The value for TCGTAACTCA was 1.01; that for GGCAGGCAGG was 1.03; that for ATATGACAAT was 1.02.
Regarding GATCCTTGTT, the switch fluorescence ratio was 0.959.
Turning to TCATTAAGAG, the switch fluorescence ratio is 1.
In the case of ACTCGTATGT, the switch fluorescence ratio is 1.01.
Regarding AACAGGGCAG, the switch fluorescence ratio came to 1.06.
Regarding AAGGTGGTGC, the switch fluorescence ratio worked out at 1.12.
With ACGCATTCCC, the switch fluorescence ratio amounted to 2.56.
With TATTCGCCTG, the switch fluorescence ratio was found to be 0.97.
Consider TTACTCGTGA, for which the switch fluorescence ratio is 1.02.
With ATAATCCCTT, the switch fluorescence ratio was 1.01.
The value for CAGGAACTAC was 1.09; that for GGCTATGCCA was 0.941.
For ATTACGGGAC, the switch fluorescence ratio amounted to 1.32.
For GTTTGCATTA, the switch fluorescence ratio amounted to 1.02.
CATAGAAATA: the switch fluorescence ratio turned out to be 1.02.
The value for CAGAGGATTT was 0.949; that for CTACACGACG was 1.23.
Regarding ATTGTGTGTT, the switch fluorescence ratio was determined as 1.
Turning to ATACCATCAC, the switch fluorescence ratio was found to be 1.17.
As for GTGAGTGTTA, the switch fluorescence ratio came to 0.973.
Regarding AACTAATCTG, the switch fluorescence ratio worked out at 1.02.
For the sequence GAAGTTTTAC, the switch fluorescence ratio worked out at 1.05.
In the case of CTAAGGTAGA it was 1.01; in that of TGCACCTGGT, 1.01.
AAGTATCCCT: the switch fluorescence ratio turned out to be 1.01.
In the case of AAGTCAGGCC it was 0.995; in that of ATTTGATGGA, 1.05.
In the case of GTTCTGATTA, the switch fluorescence ratio stood at 0.971.
For CTGAGATCCG, the switch fluorescence ratio turned out to be 1.06.
For TCAGAATCGC, the switch fluorescence ratio was 1.01.
Regarding TCAAGTGGGA, the switch fluorescence ratio was determined as 0.983.
GGATGTCCGT: the switch fluorescence ratio was 1.07.
On to ATTTGTTAGT, for which the switch fluorescence ratio came out at 1.01.
On to TTCACAAGTT, for which the switch fluorescence ratio was determined as 1.
The value for CCGTTTATGG was 1.01; that for GGTGTAACCC was 0.982.
Turning to CTTTATGGGT, the switch fluorescence ratio was determined as 0.886.
As for TTATAGTAGA, the switch fluorescence ratio stood at 1.03.
Consider GGGTATCATG, for which the switch fluorescence ratio came to 0.957.
In the case of CTGAAGCGCT, the switch fluorescence ratio amounted to 1.04.
In the case of GCAGGCCAGT it was 1.11.
With TGTAACTACT, the switch fluorescence ratio was 1.02.
TTGTTAAAGA: the switch fluorescence ratio amounted to 0.968.
Turning to TTCTTGAACA, the switch fluorescence ratio stood at 1.02.
With ACCGTCTATC, the switch fluorescence ratio is 1.09.
Turning to CGACTCGATA, the switch fluorescence ratio came to 1.54.
As for TTCTGTGGCT, the switch fluorescence ratio turned out to be 1.02.
Take TGGTACGCCC: the switch fluorescence ratio was 1.05.
TTCCTTTGTT: the switch fluorescence ratio was found to be 1.01.
Consider GGTTGAGCGC, for which the switch fluorescence ratio came to 1.1.
Turning to TGTAGGCTTG, the switch fluorescence ratio amounted to 0.982.
Consider TTCGGGAAGG, for which the switch fluorescence ratio was found to be 0.973.
As to GCCACGTTT, the switch fluorescence ratio is 1.03.
As to AACGGAGTTT, the switch fluorescence ratio was determined as 0.979.
Turning to ATCTGTAAGC, the switch fluorescence ratio worked out at 1.07.
Take GACTGATTAG: the switch fluorescence ratio amounted to 1.
CTTGCAGATG: the switch fluorescence ratio was determined as 1.01.
CGGTACTGTA: the switch fluorescence ratio was 1.09.
In the case of GTCCTTAAAA it was 0.972.
In the case of CTCTTTATTT it was 0.985; in that of ACGCTTGAAG, 1.02; in that of AGAGTCATAG, 0.985.
Turning to GGTCACGT, the switch fluorescence ratio stood at 0.964.
Take TCACCTGCCG: the switch fluorescence ratio amounted to 1.07.
For GCATCGAAC, the switch fluorescence ratio came to 1.
In the case of TACGACTAGG it was 1.
As for GCAAACAAAG, the switch fluorescence ratio stood at 0.958.
The value for TGCGCATAAG was 1.06.
TGGGGCTTCT: the switch fluorescence ratio came out at 1.06.
As for GGGAGTAGTC, the switch fluorescence ratio amounted to 0.983.
In the case of AACGATTGGA it was 1; in that of CTTCCTCGTG, 1.49; in that of ATCATGACTC, 1.07.
The value for AAAGGTGACC was 1.01.

Source of the values: the supplement of paper PMC10126150.
